In paper PMC4336329 (PLoS ONE, 2015):
Out of some 310,000 compounds screened, about 2,200 (0.71%) showed an effect of 50% or more. The effect is printed as a negative number. Some of the results follow.

Biological target: human ether-à-go-go-related gene (hERG) potassium channel (human, UniProt Q12809)
Assay: primary screen, population patch clamp on CHO cells stably expressing hERG

human ether-à-go-go-related gene (hERG) potassium channel, sequence (Q12809 whole entry, looked up): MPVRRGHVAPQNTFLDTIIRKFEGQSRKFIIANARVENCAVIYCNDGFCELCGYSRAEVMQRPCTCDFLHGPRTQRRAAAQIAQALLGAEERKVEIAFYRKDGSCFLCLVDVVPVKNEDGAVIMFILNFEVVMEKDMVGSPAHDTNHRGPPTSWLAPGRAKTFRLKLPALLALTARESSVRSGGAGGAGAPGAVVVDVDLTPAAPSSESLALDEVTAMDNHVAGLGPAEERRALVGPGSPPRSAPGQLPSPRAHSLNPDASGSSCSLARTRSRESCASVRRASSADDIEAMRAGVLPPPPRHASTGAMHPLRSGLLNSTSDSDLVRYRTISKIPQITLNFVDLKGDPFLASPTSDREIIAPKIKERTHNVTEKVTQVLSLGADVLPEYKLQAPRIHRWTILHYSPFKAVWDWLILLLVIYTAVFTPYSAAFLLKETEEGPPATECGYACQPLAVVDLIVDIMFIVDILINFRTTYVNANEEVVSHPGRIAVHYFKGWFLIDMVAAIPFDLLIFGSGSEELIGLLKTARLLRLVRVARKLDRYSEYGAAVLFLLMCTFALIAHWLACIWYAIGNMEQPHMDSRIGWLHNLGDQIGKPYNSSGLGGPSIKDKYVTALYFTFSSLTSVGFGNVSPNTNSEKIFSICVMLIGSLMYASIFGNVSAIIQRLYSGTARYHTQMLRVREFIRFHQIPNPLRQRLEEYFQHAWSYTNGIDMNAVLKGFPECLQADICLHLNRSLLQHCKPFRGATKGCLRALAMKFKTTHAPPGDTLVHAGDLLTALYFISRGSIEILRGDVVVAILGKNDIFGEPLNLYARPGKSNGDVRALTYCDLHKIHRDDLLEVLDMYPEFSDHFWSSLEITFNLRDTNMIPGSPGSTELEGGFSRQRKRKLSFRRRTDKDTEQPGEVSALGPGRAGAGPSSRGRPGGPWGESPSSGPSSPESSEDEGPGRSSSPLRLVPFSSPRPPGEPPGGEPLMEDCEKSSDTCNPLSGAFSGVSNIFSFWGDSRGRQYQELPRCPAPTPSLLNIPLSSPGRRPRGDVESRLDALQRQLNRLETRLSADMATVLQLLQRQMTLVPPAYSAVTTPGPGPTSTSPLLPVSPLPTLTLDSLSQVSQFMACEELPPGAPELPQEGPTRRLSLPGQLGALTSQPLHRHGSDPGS

Compound	hERG current change (%, negative = inhibition) at 1uM
COc1ccc(N2C(=O)NC(NC(=O)c3ccncc3)(C(F)(F)F)C2=O)cc1 (centres unmarked)	-9.46%
COc1ccc(/C=N\NC(=O)/C(=C\Nc2nccc(C)n2)NC(=O)c2ccccc2)cc1	4.94%
CCc1cc2c(cc3c(=O)n(CC(=O)NCCCN4CCCCCC4)nc(CC)n32)s1	-18.4%
Cc1cc(C)c2c(N)c(C(=O)Nc3ncc(C)s3)sc2n1	1.63%
Cc1ccc(-n2cc(C(=O)c3ccc(F)cc3)nn2)cc1Cl	8.64%
C/C(=N\NC(=S)Nc1cccc(C)c1)c1cccc(N)c1	19.2%
C/C=C(\C)C(=O)OC(C)(C)[C@H]1Cc2cc3ccc(=O)oc3cc2O1	0.146%
C=CCNC(=O)/C(=C\c1ccco1)NC(=O)c1ccco1	18.6%
OCC1(Cc2ccccc2)CCN(C2CCN(c3ccc(F)c(F)c3)CC2)CC1	-124%
CC(C)Oc1ccc(CCc2n[nH]c(=S)n2Cc2ccccc2)cc1	15.1%
O=C(O)CC/C(=C\c1cccc(NC(=O)c2ccccc2Cl)c1)c1nc2ccccc2s1	-0.661%
O=Cc1sc(=O)n(Cc2cccc(C(=O)O)c2)c1Cl	6.31%
O=C(CN1C(=O)NC2(CCc3ccccc32)C1=O)c1ccc(Br)s1 (centres unmarked)	-0.158%
CN1C(=O)c2ccc(NC(=O)c3cccc4ccccc34)cc2C1=O	14.2%
O=C(CC1Nc2cccc3cccc(c23)NC1=O)Nc1ccc(F)cc1 (centres unmarked)	-9.16%
O=C(/C=C/c1ccccc1Cl)OCC(=O)c1ccc[nH]1	5.37%
Nc1ncccc1C(=O)OCC(=O)N1CCN(S(=O)(=O)c2ccc(Cl)cc2)CC1	2.48%
COc1ccc(C2=NCCn3nc4cc(OC)ccc4c32)cc1	14.5%
O=C(/C=C/c1ccc(Br)cc1)c1ccc(NC2=NCCCS2)cc1	8%

Compound	hERG current change (%, negative = inhibition) at 1uM
O=C(/C=C/c1ccccc1)N1CCN(c2cccc(Cl)n2)CC1	3.21%
Cc1ccc(CNC(=O)C2CCN(c3nn4c(=O)cc(C)nc4s3)CC2)cc1	-0.776%
CCOc1ccc(C2/C(=C(/O)c3ccc(OC)cc3)C(=O)C(=O)N2c2cc(C)on2)cc1OC (centres unmarked)	8.38%
CC(=O)Nc1ccc(N(C(=O)CNC(=O)c2cccs2)C(C(=O)NCC2CCCO2)c2ccccc2)cc1 (centres unmarked)	13.3%
CNC(=O)NC(=O)CSc1cccc(C(F)(F)F)c1	10.4%
O=C1CCCC(=O)N1c1ccc(O)cc1	3.67%
CCCCn1c(SCC(=O)N2CCCc3ccccc32)nc2c1c(=O)n(C)c(=O)n2C	-6.31%
COC(=O)c1ccc(NCN2C(=O)C3C4CCC(C4)C3C2=O)cc1 (centres unmarked)	-3.18%
Cc1ccc(N(C)C(=O)C2CCN(S(=O)(=O)c3ccc4c(c3)oc(=O)n4C)CC2)cc1	6.89%
CC(C)C(=O)NC(=S)Nc1ccc(S(=O)(=O)N(C)C)cc1	3.03%
NC(=S)N/N=C/c1ccc(C23CC4CC(CC(C4)C2)C3)cc1	17.7%
COc1ccc(/C=C/c2nnc(NC(=O)c3ccco3)s2)cc1	16.8%
O=C(COC(=O)CCCOc1ccc(Cl)cc1Cl)NCc1ccccc1	1.55%
O=C1c2cccnc2C(=O)N1CO	14.9%
Cc1cc(C)c2c(C)c(C(=O)NCc3ccncc3)oc2c1	5.84%
CCNC(=S)NNC(=O)CCn1cc(C)cn1	15.9%
CC(C)N(Cc1ccccc1)C(=S)NCCN1CCOCC1	13.9%
N#CCSC1=Nc2ccccc2C2=NC(CCC(=O)N3CCN(c4ccccc4)CC3)C(=O)N12 (centres unmarked)	5.82%
O=C(Cc1ccc(Br)cc1)N1CCN(c2ccccn2)CC1	-15.2%

Compound	hERG current change (%, negative = inhibition) at 1uM
COC(=O)CC1=C(C(=O)OC)C(c2ccncc2)C(C#N)=C(N)O1 (centres unmarked)	6.75%
CC1=C(C(=O)Nc2ccccc2)C(c2ccco2)C(C#N)=C(SCc2ccccc2)N1 (centres unmarked)	9.12%
O=C(NCCNC(=O)c1ccco1)c1ccc(Cl)c(Cl)c1	11.2%
COc1ccc(/C=N/NC(=O)c2ccn[nH]2)cc1Cn1nc(C)c([N+](=O)[O-])c1C	12.8%
O=C(O)CCc1ccc(-c2cccs2)n1CC1CCCO1 (centres unmarked)	-6.79%
CN(C)CCNC(C(=O)Nc1cccc(S(=O)(=O)N2CCOCC2)c1)c1ccccc1 (centres unmarked)	-15.5%
Cn1c(Cn2cnc([N+](=O)[O-])n2)nnc1SCC(=O)Nc1ccccc1	13.9%
CCN1CCN(Cc2ccc(NC(=O)c3ccc(C)c(/C=C/c4cnc(Nc5cc(N6CCNCC6)nc(C)n5)cn4)c3)cc2C(F)(F)F)CC1.O=C(O)C(F)(F)F	11.6%
Cc1c(C(=O)Nc2cccc(C(F)(F)F)c2)oc2ccc(S(=O)(=O)N3CCOCC3)cc12	5.91%
Cc1ccccc1OCC(=O)OCC(=O)Nc1ccc(N2CCOCC2)cc1	9.24%
C/C(=N\NC(=S)Nc1ccc(C)cc1)c1cccc(N)c1	5.32%
O=C(O)Cc1coc(-c2ccc(F)cc2)n1	5.75%
Cc1cc(C(=O)NCCCOC(C)C)c2ccccc2n1	-6.91%
Cc1ccc(NC(=O)CCSc2ccccc2)c(C)c1	6.29%
CN(C)S(=O)(=O)c1ccc2c(c1)nc1n2CCC1	10.7%
CCOC(=O)c1cccc(NC(=O)C2CCCO2)c1 (centres unmarked)	-0.0787%
Cc1nnc(NC(=O)C2CCN(c3nnnn3-c3ccccc3)CC2)s1	-9.17%
COC(=O)c1sc(-c2cccs2)cc1N	11.6%
